The source gives no read counts; variants with many changes may rest on few reads.
B1: LINE1-mini (parent)
chain: GGCAGAGCUCAACACAGCGUGGCAAAGUGGCUGUGGCUAGACUGCC

Variants of: B1
Assay: self-cleavage, relative activity (ratio to wild type); higher = more cleavage; in vitro, sequencing; the parent is a self-cleaving ribozyme

| Variant | self-cleavage |
| --- | --- |
| GGCAGAGGUCAACACAGCGUGGCAAAGUGAUUGUGGCUAGACUGCC | 0.02 |
| GGCAGAGUUCGACACAGCGUGGCAACGUGGCUGUGGCUAGACAGCC | 0.01 |
| GGCAGAGUUCUACACAGCGUGGCAAAGUGGCUGUGCCUAGAUUGCC | 0.02 |
| GGCAGAGGUCAACACAGCGAGGCAAGGUGGCUCUGGCUAGACUGCC | 0.03 |
| GGCAGAGGUCAACACAGCGUGACAAAGUGGCUGUGGCUCGACUGCC | 0.03 |
| GGCAGAGGUCAACACAGCGUCCCAAACUGGCUGUGGCUAGACUGCC | 0.03 |
| GGCAGAGGUCAACACAGCGAGGCAGAGUGGCUGUGGCUAGGCUGCC | 0.07 |
| GGCAGAGUUCUACACUGCGUGGCAAAGUGGCUGUGGCUAGACUGCC | 0 |
| GGCAGAGGUCAACACAGCGGGGCAAAGUGGCUGUGCCUAGACUGCC | 0.05 |
| GGCAGAGGGUAACACAGCGUGGCAAAGUGGCUGUGGCUAGACUGCC | 0.02 |
| GGCAGAGGGCGAAACAGCGUGGCAAAGUGGCUGUGGAUAUACUGCC | 0.01 |
| GGCAGAGUUCUACACAGCGUGGCAAUGUGGCUGUGGCUAGACUGCC | 0.03 |
| GGCAGAGGGCAACACAACGUGGCAAAGUGACGGUGGUUAGACUGCC | 0.02 |
| GGCAGAGUUCGACAAAGCGUGGCAAAUUGGCUGUGGCUAAACUGCC | 0.02 |
| GGCAGAGUUCUACACAGCGUGGCAAAGUGGCUGUGCCUGGUCGGCC | 0.01 |
| GGCAGAGGCCAACACAGCGUGGUAAAGUGGCUGUGGCUAGACUGCC | 0.04 |
| GGCAGAGGGCAACACAGCGUGCCUUAGUGGCCGUGGCUAGACUGCC | 0.01 |
| GGCAGAGUUCGACACAGCGUGGCAACGUGGUUGUGGCUAGACUGCC | 0.02 |
| GGCAGAGGUCAACACAGCGUGGCAAAGUGGCUGGGGCUAGACUGCA | 0.05 |

| Variant | self-cleavage |
| --- | --- |
| GGCAGAGGUCAACACAGCGUGGCAAAGUGGCGGUGGCUAGUCUGCC | 0.05 |
| GGCAGAGGACAACACAGAGUGGCAAAGUGGCUGUGGCUAGACUGCC | 0.02 |
| GGCAGAGGGCAACGCAGCGUGGCAGAGUGGCUGUGGCAAGACUGCC | 0.05 |
| GGCAGAGGACAACACAGCGUGGCCAAGUGGCUGUGGCUAGAGUGCC | 0.11 |
| GGCAGAGUUCGAUACAGCGUGGCAAAGUUGCUGUGCCUAGACUGCC | 0.03 |
| GGCAGAGGUCAACACAGCGUGGCAAAGUGGCUGUGGCUAGACGACC | 0.04 |
| GGCAGAGUUCCACACAGCGUGGCAAAGUGGCUGUGGUUAGACUGCC | 0.02 |
| GGCAGAGGUCAACACAGCGUGCCAAAGUGGCUGUGGCUAGACUUCC | 0.02 |
| GGCAGAGGUCAACACAGCGUGGCAAAGUAGCUGUGGCUAGACUGCA | 0.22 |
| GGCAGAGGUCAACACAGCGUGACAAAGUGGCUGUGGCUAAACUGUC | 0.04 |
| GGCAGAGUUCCACACAGCGUGGCGAAGUGGCUGUGGCUAGACUGCC | 0.02 |
| GGCAGAGGUCAACACAGCGUGGCAAAGUGGCUUUGGCUAGACUGCA | 0.07 |
| GGCAGAGGUCAACACAGCGUGGCAAAGUGGCGGUGGCUAUACUGAC | 0.03 |
| GGCAGAGGUCAACACAGCGUGGCAAAGUGGCUAUCGCUAGACUGCC | 0.06 |
| GGCAGAGGUCAACACAGCGUGGCAAAUUGGCUAUCGUUAGACGGCC | 0.02 |
| GGCAGAGGUCAACACAGCGUGGCAAAUUAGUUGUUGCUAGACUGCC | 0.06 |
| GGCAGAGGUCAACACAGCGUGUCAAAGUGGCUGAGGCUAGACUGCC | 0.13 |
| GGCAGAGGUCAACACAGCGUGGCAAAGUGGCGGUGCCUAGACUGCC | 0.01 |
| GGCAGAGUUCCACACACCGUGGCAAAGUGGCUGUGGCUAGACUGCC | 0.02 |

| Variant | self-cleavage |
| --- | --- |
| GGCAGAGUUCCACACAGCGUGGCAAAGUGGCUGUGGCUACACUGCC | 0.04 |
| GGCAGAGUUCUACACAGCGUGGCAAAGUGGCUGUGGCUACACUGGC | 0.04 |
| GGCAGAGGUCAACACAGCGUGACAAAGUGGCAGUGGCUGGGCUGCC | 0.01 |
| GGCAGAGGGCAACACAGCUUGGCAAAUGGGCUGUGGCGAGACUGCC | 0.02 |
| GGCAGAGGUCAACACAGCGUGGCAAAGUGGCUGUGGCUAGACUUGC | 0.06 |
| GGCAGAGGGCAACAUAGCGUGGCAAAGUGGCUGUGGCUAGACUACC | 0.07 |
| GGCAGAGUUCUACACAGCGUGGCAAAGUGGCUGUGGCUAGACCGCC | 0.02 |
| GGCAGAGGUCAACACAGCUUGGCAAAGUGGUUGUUGCUAGACUGCC | 0.02 |
| GGCAGAGGUCAACACAGCGUGGCAAAGUUGCUGUGGCUAGACUGUC | 0.03 |
| GGCAGAGUUCUAUACAGCGUGGCAAAGUGGCUGUGGCUAGACUGGC | 0.01 |
| GGCAGAGGUCAACACAGCGUGGCAAAGUUGCUGUGUCUAGACUGCC | 0.03 |
| GGCAGAGGACAACACAGCGUGGCAAAGUGGCUGUGGCAACACUACC | 0.01 |
| GGCAGAGGUCAACACAGCGUUGCAAAGUGGCUGUGACUAGACUGCC | 0.02 |
| GGCAGAGGUCAACACAGCGUUGCAAAGUGGCUGUGCCUAGACUGCC | 0.28 |
| GGCAGAGGUCAACACAGCGUGGCAAAGUAGCUGUGGCUCGACUGCC | 0.12 |
| GGCAGAGGACAACACAGCAUGGCAGCGUGGCUGUGGCGAGAUUUCC | 0.18 |
| GGCAGAGUUCGACAAAGCGUGGCAAACUGGCUGUGGCUAGACUGUC | 0.03 |
| GGCAGAGGGCAACACAGCGUGGCAAAGUGGCUGUGGCUAGACUUCC | 0.08 |

Reference: the RNAGym collection of RNA variant scans (doi:10.7554/elife.90254)
